# Assay results published in PubChem BioAssay AID504339 (National Center for Advancing Translational Sciences (NCATS), 2011).
# Out of some 390,000 compounds screened, about 17,000 (4.4%) were called active. Inconclusive means that the source gave no clear call. Such entries were picked first, then a sample of the others. Calls come from the whole dose curve; as a rule, active = well fitted inhibition curve with a large enough effect; inconclusive = small, poorly fitted or top-dose-only effect; inactive = no such curve, though single readings can be large or run the other way. Potencies beside an inconclusive call are fits to weak or partial responses and may not hold up.
# Biological target: Lysine-specific demethylase 4A (Homo sapiens) (UniProt O75164)
# Chain of UniProt O75164 (O75164 whole entry, looked up, the tested form may be a part): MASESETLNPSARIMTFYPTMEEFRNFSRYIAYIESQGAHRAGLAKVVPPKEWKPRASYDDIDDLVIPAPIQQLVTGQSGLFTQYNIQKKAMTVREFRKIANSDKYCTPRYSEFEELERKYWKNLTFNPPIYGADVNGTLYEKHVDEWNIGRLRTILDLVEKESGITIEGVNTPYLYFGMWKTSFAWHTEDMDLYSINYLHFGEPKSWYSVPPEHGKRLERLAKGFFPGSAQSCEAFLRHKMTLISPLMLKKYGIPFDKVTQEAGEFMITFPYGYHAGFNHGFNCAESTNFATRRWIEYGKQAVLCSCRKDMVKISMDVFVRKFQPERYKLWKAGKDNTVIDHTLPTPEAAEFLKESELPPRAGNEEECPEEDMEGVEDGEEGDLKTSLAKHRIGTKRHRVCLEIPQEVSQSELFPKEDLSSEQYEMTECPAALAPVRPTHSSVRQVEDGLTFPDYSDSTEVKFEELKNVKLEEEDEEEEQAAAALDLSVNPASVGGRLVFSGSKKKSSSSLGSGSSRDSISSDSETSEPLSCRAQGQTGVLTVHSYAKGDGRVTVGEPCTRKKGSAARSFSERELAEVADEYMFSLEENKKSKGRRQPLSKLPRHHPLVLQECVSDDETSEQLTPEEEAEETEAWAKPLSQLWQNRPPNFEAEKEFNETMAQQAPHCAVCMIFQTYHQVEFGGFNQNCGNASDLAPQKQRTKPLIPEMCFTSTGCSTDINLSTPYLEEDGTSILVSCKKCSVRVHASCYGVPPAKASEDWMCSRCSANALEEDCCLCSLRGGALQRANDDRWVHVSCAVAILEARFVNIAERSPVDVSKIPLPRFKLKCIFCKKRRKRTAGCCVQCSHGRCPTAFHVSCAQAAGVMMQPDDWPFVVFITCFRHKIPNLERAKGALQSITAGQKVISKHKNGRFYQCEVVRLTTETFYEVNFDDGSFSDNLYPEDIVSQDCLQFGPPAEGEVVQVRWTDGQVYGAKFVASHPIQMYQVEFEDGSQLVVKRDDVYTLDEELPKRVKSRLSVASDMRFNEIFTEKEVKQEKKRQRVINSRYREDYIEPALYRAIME
# Assay: qHTS Assay for Inhibitors of JMJD2A-Tudor Domain; note: nearly all actives have a fitted effect of over 50% in size
# Conditions: AlphaScreen JMJD2A-Tudor / H3K4me3 peptide binding; series mostly up to 114 µM
# Potency is the fitted concentration of half-maximal effect; tags give direction and shape of the fitted curve.
row,SMILES,Potency
1,CCOC(=O)Cc1nc2ccccc2n(CC#N)c1=O,inactive
2,Cc1ccc(C)c(N2CCN(C(c3ccccc3)c3nnc(-c4ccccc4F)o3)CC2)c1 (stereo not given),inactive
3,COc1ccc(CN2CCN(Cc3cc(=O)oc4cc(C)ccc34)CC2)c(OC)c1OC,"inconclusive: 56.2 µM [inhibitor, partial curve]"
4,CCCCN(C)C(=O)c1ccc(S(=O)(=O)N2CCOCC2)cc1,inactive
5,COc1ccc(-n2cc(C(=O)NCc3ccccc3)c3ccccc3c2=O)cc1,"inconclusive: 50.1 µM [inhibitor, partial curve]"
6,CN(CCC#N)C(=S)Nc1ccc(S(=O)(=O)N2CCOCC2)cc1,inactive
7,COc1ccccc1CNC(=O)CCCc1cn(C)c2ccccc12,"inconclusive: 50.1 µM [inhibitor, partial curve]"
8,Cc1cc(NS(=O)(=O)c2ccc(NC(=O)COc3ccccc3[N+](=O)[O-])cc2)no1,"inconclusive: 56.2 µM [inhibitor, partial curve]"
9,Cc1cc(Cl)ccc1NC(=O)COC(=O)c1nc2nccc(C)n2n1,inactive
10,CN(C)c1ccc(NC(=O)CSc2nc(N)c(C(=O)Nc3ccc(N(C)C)cc3)s2)cc1,"inconclusive: 35.5 µM [inhibitor, partial curve]"
11,CCCc1nc(SCC(=O)NCc2ccco2)c2c(=O)n(C)c(=O)n(C)c2n1,inactive
12,CC(C)(C)c1ccc(C(=O)NNC(=S)NCC2CCCO2)cc1 (stereo not given),inactive
13,CN1c2ccc([N+](=O)[O-])cc2N(C)C1(C)c1ccccc1 (stereo not given),active: 10 µM
14,CN(C)c1ccc(C(CNS(=O)(=O)c2ccc(F)cc2)c2c[nH]c3ccccc23)cc1 (stereo not given),active: 25.1 µM
15,CCc1nnc(N/N=C/c2c(C)[nH]c3ccccc23)n1N,inactive
16,CCCCNc1nc2c(c(=O)n(Cc3ccc(Cl)cc3)c(=O)n2C)n1C,"inconclusive: 50.1 µM [inhibitor, partial curve]"
17,Cc1ccc([N+](=O)[O-])c(-c2n[nH]c(=S)n2-c2cccc(Cl)c2)c1,"inconclusive: 89.1 µM [inhibitor, single point]"
18,C[C@H](CO)N1C[C@H](C)[C@@H](CN(C)C(=O)Nc2ccc3c(c2)OCO3)Oc2ccc(NC(=O)Nc3ccc4c(c3)OCO4)cc2C1=O,"inconclusive: 44.7 µM [inhibitor, partial curve]"
19,Cc1ccc(-n2nc3c(=O)n(C(C)C(=O)NCCC4=CCCCC4)nc(C)c3c2C)cc1 (stereo not given),active: 44.7 µM
20,COc1ccc(-c2nn(-c3ccccc3)cc2/C=N/Nc2ccc3ccccc3n2)cc1OC,"inconclusive: 20 µM [inhibitor, full curve]"
